According to PubChem BioAssay AID463173 (ICCB-Longwood Screening Facility, Harvard Medical School, 2010):
In all, about 52,000 compounds went through this assay and about 4,300 (8.3%) were called active. Rule as the data show it: active = survival mostly below about 52% (no sharp cut-off); inactive = mostly above about 56%. This is one part of the list.

System: DeltatarO mutant
Test: growth inhibition of S. aureus wild type versus tarO mutant, primary screen, teichoic acid synthesis inhibitors, RN4220, OD600 (AID 463173)
Details: OD600, 18 h, stronger effect = lower value, screened at 18.75 µg/mL (by protocol)

Q: CCn1c2c(c(=O)n3ncc(C(=O)Nc4ccc(Cl)cc4C)c13)CN(Cc1ccc(OC)cc1)CC2 was tested. Which survival did it give?
A: inactive: 87%

Q: With Brc1cccc(-c2nnn3c2nc(N2CCCCC2)c2ccccc23)c1 as the molecule, how does the survival read?
A: inactive: 62%

Q: For Cc1ccc2nc3c(c(Nc4ccc(C)c(C)c4)c2c1)CCC3, which survival is on record?
A: active: 38%

Q: With O=C(CNS(=O)(=O)c1cccs1)N1CCN(c2ccccc2F)CC1 as the molecule, how does the survival read?
A: inactive: 51%

Q: For Cc1ccc(F)cc1S(=O)(=O)N1CCC(c2nc3ccccc3s2)CC1, which survival is on record?
A: inactive: 89%

Q: Which survival does the source give for COc1ccc(CCNC(=O)CCCCn2c(=O)c3ccccc3n(Cc3ccccc3)c2=O)cc1OC here?
A: inactive: 88%

Q: Fc1ccccc1N1CCN(c2ncnc3c2nc2n3CCCC2)CC1 was tested. Which survival did it give?
A: inactive: 84%

Q: For Clc1cccc(-n2ncc3c(NC4CCCCCC4)ncnc32)c1, which survival is on record?
A: inactive: 91%

Q: Which survival does the source give for CCOC(=O)c1ccc(NC(=O)CSc2ncc(S(=O)(=O)c3ccc(C)c(Cl)c3)c(=O)[nH]2)cc1 here?
A: inactive: 76%

Q: Which survival does the source give for CN(C)c1ccc(NC(=O)Cn2cc(S(=O)(=O)Cc3ccccc3Cl)c3ccccc32)cc1 here?
A: inactive: 76%

Q: CCCCN(C)c1nnc(NC(=O)Nc2ccc(Br)c(C)c2)s1 was tested. Which survival did it give?
A: inactive: 87%

Q: CCn1cc2nc(SCC(=O)Nc3ccc(OC)cc3OC)n(Cc3ccc(Cl)cc3)c(=O)c2n1 was tested. Which survival did it give?
A: inactive: 80%

Q: How did the survival turn out when CCOCCc1nn2c(=O)cc(COC(=O)c3ccccc3NC(=O)c3ccc(C)cc3)nc2s1 was run?
A: inactive: 81%

Q: Which survival does the source give for CCOc1ccc(NC(=O)Cn2cc(C(=O)c3ccc(C)cc3)c(=O)c3cc4c(cc32)OCO4)cc1 here?
A: inactive: 70%

Q: Which survival does the source give for CCc1ccc(CN(Cc2ccco2)C(=O)c2cc(-c3ccc(C)c(F)c3)on2)cc1 here?
A: inactive: 100%

Q: Cc1ccc(N(Cc2cccs2)C(=O)c2ccccc2[N+](=O)[O-])cc1 was tested. Which survival did it give?
A: inactive: 74%

Q: CCC(C)NC(=O)Cn1c(=O)c2cccn2c2ccc(F)cc21 (stereo not given) was tested. Which survival did it give?
A: inactive: 82%

Q: How did the survival turn out when CCCOc1cccc(C(=O)N2CCCCC2CCN2CCCCC2)c1 (stereo not given) was run?
A: inactive: 79%

Q: How did the survival turn out when O=C(Nc1ccc(F)cc1Cl)c1cnc(N2CCOCC2)c2ccccc12 was run?
A: inactive: 104%

Q: How did the survival turn out when Cc1ccccc1Cn1c(C)c(CNCCCc2ccccc2)c(C(=O)O)c1C was run?
A: inactive: 78%

Q: Which survival does the source give for COc1ccc(C2C=C(c3ccc(Cl)cc3)Nc3nc(NC(=O)CCC(=O)O)nn32)cc1 (stereo not given) here?
A: inactive: 74%

Q: With Cc1ccccc1Nc1c(-c2c[nH]c3ccccc23)nc2cccc(C)n12 as the molecule, how does the survival read?
A: inactive: 144%

Q: With Cc1ccc(S(=O)(=O)N2CCc3cc(C(=O)Nc4c(C)cccc4C(C)C)ccc32)cc1 as the molecule, how does the survival read?
A: inactive: 77%

Q: For COc1cccc(CC(=O)Nc2ccc3nc(Nc4cccc(C(F)(F)F)c4)cc(C)c3c2)c1, which survival is on record?
A: active: 25%

Q: COC(=O)c1cc2oc3ccccc3c2n1CC(=O)Nc1ccc(F)c(Cl)c1 was tested. Which survival did it give?
A: inactive: 60%

Q: Which survival does the source give for CCOc1ccc(CCNC(=O)c2nn(C)c3c2CSc2ccc(C)cc2-3)cc1OCC here?
A: inactive: 57%

Q: How did the survival turn out when Cc1cccc(Cn2c(CN3CCCC(C)C3)nc3c2c(=O)n(C)c(=O)n3C)c1 (stereo not given) was run?
A: inactive: 73%

Q: For COc1cccc(CNC(=O)c2cc(=O)[nH]c3ccc(S(=O)(=O)N4CCCC4)cc23)c1, which survival is on record?
A: inactive: 60%

Q: With CS(=O)(=O)N(CC(=O)N1CCCCC1)C1CCCCC1 as the molecule, how does the survival read?
A: inactive: 85%

Q: COc1ccc(CNC(=O)CC2Oc3ccc(C)cc3NC2=O)cc1 (stereo not given) was tested. Which survival did it give?
A: inactive: 81%

Q: Which survival does the source give for CC1Cc2cc(S(=O)(=O)NCc3ccccc3)ccc2N1C(=O)C1CCC1 (stereo not given) here?
A: inactive: 90%

Q: Which survival does the source give for O=C(NCc1ccccc1)c1nc(-c2ccc(Cl)cc2)n2c1CCCCC2 here?
A: inactive: 99%

Q: How did the survival turn out when COCCCNC(=O)c1ccc(-n2c(-c3ccccc3)cc3c2CCCCC3)cc1 was run?
A: active: 39%

Q: With O=C(CSc1nc2ccccc2n1CC(=O)N1CCCC1)N1CCCCC1 as the molecule, how does the survival read?
A: inactive: 85%

Q: Clc1ccc2nc(-c3cccs3)c(Nc3ccc4c(c3)OCCO4)n2c1 was tested. Which survival did it give?
A: inactive: 101%

Q: How did the survival turn out when CCOC(=O)c1cc(OC(=O)c2cc(OC)cc(OC)c2)n(-c2ccccc2)n1 was run?
A: inactive: 62%

Q: With CCc1nonc1NC(=O)c1oc2ccc(Cl)cc2c1C as the molecule, how does the survival read?
A: inactive: 74%

Q: For Cc1ccc(Cl)cc1NC(=O)Cn1c(SCC(=O)NCc2ccccc2)nc2ccccc21, which survival is on record?
A: inactive: 96%

Q: With CCCCSc1nc(-c2cccc(OC)c2)nc2c1Cc1c(CO)cnc(C)c1O2 as the molecule, how does the survival read?
A: inactive: 81%

Q: How did the survival turn out when O=C(CSc1nnc(-c2ccncc2)o1)Oc1ccccc1 was run?
A: inactive: 82%

Q: For Cc1ccc(NC(=O)c2cnc3cc(C)ccn3c2=O)c(C)c1, which survival is on record?
A: inactive: 98%

Q: For COc1ccc(-c2cc(C(=O)Nc3cc(C)nn3-c3ccccc3)no2)cc1OC, which survival is on record?
A: inactive: 74%

Q: Which survival does the source give for Cc1ccc2[nH]c(C)c(CN3CC(C)OC(C)C3)c(=O)c2c1 (stereo not given) here?
A: inactive: 65%

Q: For COc1ccc(NC(=O)C2Cc3ccccc3CN2S(=O)(=O)c2ccccc2)cc1OC (stereo not given), which survival is on record?
A: inactive: 94%

Q: CCc1cccc(-n2c(=O)c3cccnc3n2CC(=O)Nc2ccc(OC)c(Cl)c2)c1 was tested. Which survival did it give?
A: inactive: 104%

Q: For CCc1ccccc1NC(=O)CCCn1c(=O)c2cccn2c2ccccc21, which survival is on record?
A: inactive: 79%

Q: Which survival does the source give for COc1cccc(-n2c(SCC(N)=O)nc3c(oc4ccccc43)c2=O)c1 here?
A: inactive: 67%

Q: For Cc1cc(C)nc(Sc2ccccc2)n1, which survival is on record?
A: inactive: 76%

Q: CC1CCCCN1C(=O)CN1CCSc2ccccc21 (stereo not given) was tested. Which survival did it give?
A: inactive: 74%

Q: How did the survival turn out when CCC(=O)Nc1ccc(CC)cc1-c1nc2ccccc2n(CC(=O)c2ccc(OC)cc2)c1=O was run?
A: inactive: 70%

Q: How did the survival turn out when Cc1cc(/C=C(/C#N)C(=O)NCc2ccccc2)c(C)n1-c1cccnc1 was run?
A: inactive: 56%

Q: How did the survival turn out when Cc1ccc(-c2cc(NC(=O)c3cccc(C)c3)on2)cc1 was run?
A: inactive: 78%

Q: For Cc1c(Cl)cccc1NC(=O)c1oc2ccc(S(=O)(=O)N3CCC4(CC3)OCCO4)cc2c1C, which survival is on record?
A: inactive: 107%

Q: With O=S(=O)(NCc1ccc(F)cc1)c1ccc2[nH]c3c(c2c1)CCCC3 as the molecule, how does the survival read?
A: active: -1%

Q: With Cc1ccc(S(=O)(=O)N2CCc3cc(C(=O)Nc4ccc(Cl)cc4C)ccc32)cc1 as the molecule, how does the survival read?
A: inactive: 63%

Q: CCCc1nn2c(=O)cc(COC(=O)c3ccc(NC(=O)COc4ccccc4F)cc3)nc2s1 was tested. Which survival did it give?
A: inactive: 117%

Q: Which survival does the source give for O=C(CCCOc1ccccc1)Nc1ncn[nH]1 here?
A: inactive: 80%

Q: CC1Cc2cc(S(=O)(=O)NCc3ccc(Cl)cc3)ccc2N1C(=O)C1CCC1 (stereo not given) was tested. Which survival did it give?
A: inactive: 67%

Q: How did the survival turn out when CSc1nc(-c2ccc(Cl)cc2)nn1S(=O)(=O)c1ccc(NC(C)=O)cc1 was run?
A: active: 43%

Q: For CC(C)c1ccc(N2C(=O)N(Cc3cccc([N+](=O)[O-])c3)c3ccccc3S2(=O)=O)cc1, which survival is on record?
A: inactive: 94%

Q: With CCOc1ccc(NC(=O)[C@@H](c2ccccc2)N2Cc3ccccc3C2=O)cc1 as the molecule, how does the survival read?
A: inactive: 70%

Q: How did the survival turn out when COc1ccc(NS(=O)(=O)c2ccc3c(c2)[C@H]2C=CC[C@H]2[C@@H](c2ccc(C(=O)O)cc2)N3)cc1 was run?
A: inactive: 72%

Q: For Cc1noc(-c2ccc(-c3noc(-c4ccc([N+](=O)[O-])c(C)c4)n3)cc2)n1, which survival is on record?
A: inactive: 54%

Q: How did the survival turn out when Cc1cc(S(=O)(=O)Nc2ccc3oc4c(c3c2)CCCC4)ccc1Cl was run?
A: active: 41%

Q: Which survival does the source give for O=C1CN(C(=O)Cc2ccccc2)C(c2ccc(F)cc2)c2cc(Br)ccc2N1 (stereo not given) here?
A: inactive: 61%

Q: How did the survival turn out when Cc1ccc(Cl)cc1N1CCN(C(=O)c2noc3c2CCCC3)CC1 was run?
A: inactive: 71%

Q: With CC(=O)OCC1OC(OC(C)=O)C(NC(=O)C(C)C)C(OC(C)=O)C1OC(C)=O (stereo not given) as the molecule, how does the survival read?
A: inactive: 108%

Q: O=C(CSc1nnc(-c2ccccc2)o1)NC1CCCC1 was tested. Which survival did it give?
A: inactive: 89%

Q: With Cc1ccc(-n2nnnc2CNC(=O)C2CC(=O)N(c3ccccc3)C2)cc1C (stereo not given) as the molecule, how does the survival read?
A: inactive: 72%

Q: With COc1ccc(Cl)cc1NC(=O)Cn1nnc2sc(-c3ccccc3)cc2c1=O as the molecule, how does the survival read?
A: inactive: 55%

Q: COc1cc(C2C(C(=O)Nc3ccccc3C)=C(C)Nc3nc(SCc4cc(C)ccc4C)nn32)ccc1O (stereo not given) was tested. Which survival did it give?
A: inactive: 105%

Q: How did the survival turn out when CCN(CC)c1ccc(NC(=O)CCc2c(C)nc3ncnn3c2C)c(C)c1 was run?
A: inactive: 115%

Q: For Cc1cccn2c(=O)c(C(=O)N3CCN(c4ccc(Cl)cc4)CC3)cnc12, which survival is on record?
A: inactive: 95%

Q: For O=S(=O)(NCCc1csc2nc(-c3ccccc3)nn12)c1ccc(Oc2ccccc2)cc1, which survival is on record?
A: inactive: 64%

Q: Which survival does the source give for Cn1cc(S(=O)(=O)c2ccccc2)c(=O)c2cc(F)c(N3CCCC3)cc21 here?
A: inactive: 123%

Q: O=C(NCc1ccccc1)c1ccc(CSc2nc3cccnc3n2Cc2ccccc2)cc1 was tested. Which survival did it give?
A: inactive: 102%

Q: For CCc1cccc(C)c1NC(=O)c1cc2ccccc2o1, which survival is on record?
A: inactive: 129%

Q: Which survival does the source give for COc1ccc(NC(=O)Cn2cc(S(=O)(=O)c3ccccc3)c(=O)c3cc(C)ccc32)cc1Cl here?
A: inactive: 76%

Q: For COc1cccc(N2CCN(C(=O)c3ccc4c(Cl)c5c(nc4c3)CCCC5)CC2)c1, which survival is on record?
A: inactive: 88%

Q: Which survival does the source give for CCc1ccc(NC(=O)CSC2=Nc3ccccc3C3=NC(CC(=O)NCc4cccs4)C(=O)N23)cc1 (stereo not given) here?
A: inactive: 99%

Q: With Cc1cc2c(cc3c(SCc4cccc(Cl)c4)nnc(C)n32)o1 as the molecule, how does the survival read?
A: inactive: 56%

Q: For CCC(=O)N1CCc2cc(Br)cc(S(=O)(=O)N3CCC(C(=O)Nc4cccc(C)c4)CC3)c21, which survival is on record?
A: inactive: 80%

Q: How did the survival turn out when COc1ccc(CCNC(=O)c2cc3c(=O)n4ccccc4nc3n2C)cc1 was run?
A: inactive: 61%

Q: For CCCN1CC=C2C(C#N)=C(N)C(C#N)(C#N)C(c3cccc(OC)c3)C2C1 (stereo not given), which survival is on record?
A: inactive: 95%

Q: Which survival does the source give for O=C(CSc1nnc2[nH]c(=O)cc(-c3ccccc3)n12)Nc1ccccc1C(F)(F)F here?
A: inactive: 72%

Q: For Cc1cccc(NC(=O)Nc2ccc(C)c(C)c2)n1, which survival is on record?
A: inactive: 96%

Q: Cc1cc(OCC(=O)Nc2ccc(C(=O)OC3CCCCC3)cc2)ccc1Cl was tested. Which survival did it give?
A: inactive: 76%

Q: How did the survival turn out when CNC(=O)c1cccc(-n2c(C)nc3cccnc32)c1C was run?
A: inactive: 81%

Q: With O=c1c2cccnc2n(Cc2ccc(Cl)cc2)c(=O)n1Cc1ccc(F)cc1 as the molecule, how does the survival read?
A: inactive: 87%

Q: CC(=O)c1ccc(NC(=O)CSc2nc3c(=O)n(C)c(=O)n(C)c3n2C)cc1 was tested. Which survival did it give?
A: inactive: 84%
